{"source": "PubChem BioAssay AID1460", "about": "(National Center for Advancing Translational Sciences (NCATS), 2008)", "note": "Where “and” joins values, the source holds several entries; their conditions need not be identical. Equal values may be shown once. About 5,800 (2.1%) of roughly 270,000 compounds were called active. The shares of active, inactive and inconclusive entries below differ from those in the screen. Calls come from the whole dose curve; as a rule, active = well fitted inhibition curve with a large enough effect; inconclusive = small, poorly fitted or top-dose-only effect; inactive = flat fitted curve, though single readings scatter. Potencies beside an inconclusive call are fits to weak or partial responses and may not hold up. % is set by controls: 0 for no effect and ±100 for the full control effect; potency is the fitted concentration of half-maximal effect; tags give direction and shape of the fitted curve."}
{"biological_target": "Microtubule-associated protein tau (Homo sapiens) (UniProt P10636)", "sequence (P10636 whole entry, looked up, the tested form may be a part)": "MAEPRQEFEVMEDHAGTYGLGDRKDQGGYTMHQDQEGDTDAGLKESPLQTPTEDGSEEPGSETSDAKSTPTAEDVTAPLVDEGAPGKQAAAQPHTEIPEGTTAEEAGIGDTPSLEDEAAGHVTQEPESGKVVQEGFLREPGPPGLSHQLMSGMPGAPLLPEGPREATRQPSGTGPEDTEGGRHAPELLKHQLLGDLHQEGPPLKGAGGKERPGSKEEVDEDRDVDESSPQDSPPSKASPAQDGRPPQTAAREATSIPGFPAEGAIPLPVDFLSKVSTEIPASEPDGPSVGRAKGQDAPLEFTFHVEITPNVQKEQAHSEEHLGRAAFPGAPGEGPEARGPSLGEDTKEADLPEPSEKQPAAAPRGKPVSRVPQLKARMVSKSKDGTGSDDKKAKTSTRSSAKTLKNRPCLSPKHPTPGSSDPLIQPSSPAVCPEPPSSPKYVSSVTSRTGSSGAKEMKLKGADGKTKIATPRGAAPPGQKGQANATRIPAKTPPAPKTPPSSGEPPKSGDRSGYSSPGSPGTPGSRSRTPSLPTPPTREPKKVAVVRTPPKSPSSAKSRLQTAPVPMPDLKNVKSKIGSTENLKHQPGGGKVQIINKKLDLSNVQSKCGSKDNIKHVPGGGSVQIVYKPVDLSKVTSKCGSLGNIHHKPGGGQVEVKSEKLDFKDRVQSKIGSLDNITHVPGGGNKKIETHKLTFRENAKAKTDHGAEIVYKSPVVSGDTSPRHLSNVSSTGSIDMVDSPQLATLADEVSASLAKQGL", "assay": "qHTS for Inhibitors of Tau Fibril Formation, Thioflavin T Binding; note: nearly all actives have a fitted effect of over 55% in size", "conditions": "recombinant tau K18 P301L (four-repeat tau fragment), heparin-induced fibrillization, ThT fluorescence; series mostly up to 57.4 µM", "in_short": "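Tau K18 P301L fragment (15 uM unlabeled plus 0.24 uM Alexa 594-labeled) in 100 mM sodium acetate pH 7 with compound, fibrillization induced by 20 uM heparin for 6 hr at 37 C. Thioflavin T (30 uM) added, fluorescence read after 1 hr (ex 450, em 510 nm).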"}
{"smiles": "O=C(Cn1cc(SCc2ccc(Cl)cc2)c2ccccc21)N1CCOCC1", "Potency": "inconclusive: 14.1 µM [inhibitor, partial curve] and inconclusive: 12.6 µM [inhibitor, single point]"}
{"smiles": "Cc1nn(C(C)C(=O)NC2C(=O)N3C(C(=O)O)=C(CSc4nnnn4C)CSC23)cc1Cl", "note": "(configuration not stated)", "Potency": "inconclusive: 17.8 µM [inhibitor, partial curve]"}
{"smiles": "CCOc1ccc(N2C(=O)CC(N(Cc3ccco3)C(=O)CCC(=O)O)C2=O)cc1", "note": "(configuration not stated)", "Potency": "inactive"}
{"smiles": "O=C1CCCC(O)=C1N=Nc1ccc(C(=O)O)cc1", "Potency": "inconclusive: 20 µM [inhibitor, partial curve]"}
{"smiles": "N#Cc1nc(/C=C/c2ccc(F)cc2)oc1N1CCCCCC1", "Potency": "inactive"}
{"smiles": "CCOc1ccccc1-c1cc(-c2n[nH]c(=S)n2CC)c2ccccc2n1", "Potency": "inactive"}
{"smiles": "Cc1ccc(S(=O)(=O)/N=C2/C=C(Sc3ncn[nH]3)C(=O)c3ccccc32)cc1", "Potency": "active: 3.55 µM"}
{"smiles": "Cc1ccc(NC(=O)/C(C#N)=C(\\N)C(Cl)(Cl)Cl)nc1", "Potency": "active: 25.1 µM"}
{"smiles": "CC1(C)C2CCC(C2)C1(C)NC(=O)CNCC1CCCCC1", "note": "(configuration not stated)", "Potency": "inactive"}
{"smiles": "O=C(CSc1ccc(-c2ccc(F)cc2)nn1)N1CCCc2ccccc21", "Potency": "inconclusive: 25.1 µM [inhibitor, partial curve, poor fit]"}
{"smiles": "COC(=O)c1ccc(Cn2cnc3c(cnn3-c3ccc(C)c(C)c3)c2=O)o1", "Potency": "inconclusive: 28.2 µM [inhibitor, single point]"}
{"smiles": "COc1ccc(/C=C/c2cc(OC)c(OC)cc2CC[N+](C)(C)C)cc1", "Potency": "inactive"}
{"smiles": "O=c1[nH][nH]c2c(N=Cc3ccccc3O)ccc(F)c12", "Potency": "active: 3.55 µM"}
{"smiles": "COc1ccc(-c2cc(OC(=O)c3cccc(Cl)c3)c3c(C)oc(C)c3c(=O)c2)cc1OC", "Potency": "inconclusive: 22.4 µM [inhibitor, partial curve]"}
{"smiles": "Cc1c(Cl)cccc1NC(=O)CSc1nc(=O)[nH]c2c1CCC2", "Potency": "inactive"}
{"smiles": "O=S(=O)(c1cccc(Cl)c1)n1c(/C=C/c2ccccc2Cl)nc2ccccc21", "Potency": "inconclusive: 1.58 µM [inhibitor, partial curve, poor fit]"}
{"smiles": "CN(C)c1cccc(C(=O)N/N=C/c2ccsc2)c1", "Potency": "inconclusive: 15.8 µM [inhibitor, partial curve]"}
{"smiles": "O=[N+]([O-])c1ccc(OCc2cnc(Cl)s2)cc1", "Potency": "inconclusive: 14.1 µM [inhibitor, partial curve]"}
{"smiles": "Cc1cc(C)c(S(=O)(=O)NCC2CCC(C(=O)NCCc3ccccc3)CC2)c(C)c1", "note": "(configuration not stated)", "Potency": "inactive"}
{"smiles": "COc1cc(OC)c2c(c1)S(=O)(=O)C(c1ccccc1)=C2N", "Potency": "inconclusive: 20 µM [inhibitor, single point]"}
{"smiles": "Cc1nc2nc(Cc3ccccc3)nn2c(C)c1Cl", "Potency": "inactive"}
{"smiles": "Nc1ccc2nc(-c3ccc(N)c(Cl)c3)[nH]c2c1", "Potency": "inconclusive: 14.1 µM [inhibitor, partial curve]"}
{"smiles": "COC(=O)Cn1c(C)nc([N+](=O)[O-])c1Br", "Potency": "inconclusive: 20 µM [inhibitor, single point]"}
{"smiles": "O=C(N/N=C1/C[C@@H](O)[C@@H](O)[C@@H]2[C@@H]3C(=O)N(C[C@@H]4CCCO4)C(=O)[C@H]3CC[C@@H]12)OCc1ccccc1", "activity, negative = inhibition": "inactive: -0.321% [at 11.5 µM]"}
{"smiles": "O=c1[nH]nc(CNc2ccc(C(F)(F)F)cc2)c2ccccc12", "Potency": "inconclusive: 6.31 µM [inhibitor, full curve]"}
{"smiles": "CCOC(=O)CSC1=NC(=O)/C(=C/c2ccc(OC)cc2)S1", "Potency": "inconclusive: 28.2 µM [inhibitor, partial curve]"}
{"smiles": "CCOc1ccc2nc(NC3=NC(c4ccc(OC)cc4)CC(=O)N3)nc(C)c2c1", "note": "(configuration not stated)", "Potency": "inconclusive: 15.8 µM [inhibitor, partial curve]"}
{"smiles": "COc1ccc(-n2c(SCC(N)=O)nc3sc4c(c3c2=O)CCN(C)C4)cc1", "Potency": "inconclusive: 20 µM [inhibitor, partial curve]"}
{"smiles": "COc1ccccc1N1CCN(C(=O)c2nn(C)c3c2CS(=O)(=O)c2ccccc2-3)CC1", "Potency": "inconclusive: 28.2 µM [inhibitor, single point]"}
{"smiles": "Cc1cccnc1NC1(C(F)(F)F)N=C2SCCN2C1=O", "note": "(configuration not stated)", "Potency": "inactive"}
{"smiles": "Cc1cc2nnc(SC3CCOC3=O)n2c2ccccc12", "note": "(configuration not stated)", "Potency": "inactive"}
{"smiles": "COc1cccc(C(=O)COc2ccc3c(C)c(Cc4ccccc4)c(=O)oc3c2)c1", "Potency": "inactive"}
{"smiles": "CCOC(=O)CSc1nc2cc(C)cc(C)c2cc1C#N", "Potency": "inconclusive: 15.8 µM [inhibitor, partial curve]"}
{"smiles": "COc1ccc(-n2ncc3c2ncn2nc(-c4ccc(OC)c(OC)c4)nc32)cc1", "Potency": "inconclusive: 14.1 µM [inhibitor, partial curve]"}
{"smiles": "C=CCN(C(=O)CCC(=O)Nc1cc(C)on1)C(C(=O)NC1CCCC1)c1cccnc1", "note": "(configuration not stated)", "Potency": "inactive"}
{"smiles": "O=C(Nc1ccc(S(=O)(=O)Nc2ncccn2)cc1)c1nn(Cc2ccccc2)c(=O)c2ccccc12", "Potency": "inactive"}
{"smiles": "CC1CN(CCCCOc2ccc(F)cc2)CC(C)O1", "note": "(configuration not stated)", "Potency": "inactive"}
{"smiles": "Cc1ccccc1-c1nc(CNC(=O)NC2CCCCC2)c(C)o1", "Potency": "inactive"}
{"smiles": "CCc1nc2ccccc2n1CC(C)C(=O)O", "note": "(configuration not stated)", "Potency": "inactive"}
{"smiles": "CCCCN(CCCC)CCCNC(=O)c1cc(-c2ccc(Cl)s2)nc2ccccc12", "Potency": "inactive"}
{"smiles": "CC1SC(=NC(=O)c2ccco2)NC1=O", "note": "(configuration not stated)", "Potency": "inactive"}
{"smiles": "Cc1nc(NC(=O)CC(C)C)sc1-c1csc(Nc2ccc(Cl)cc2Cl)n1", "Potency": "inconclusive: 15.8 µM [inhibitor, partial curve]"}
{"smiles": "O=[N+]([O-])c1ccc(N2CCN(S(=O)(=O)c3ccccc3)CC2)cc1NCc1cccnc1", "Potency": "inconclusive: 7.94 µM [inhibitor, partial curve]"}
{"smiles": "CC(C)NC(=O)c1ccc(CSc2nc3ccncc3n2Cc2cccc(F)c2)cc1", "Potency": "inactive"}
{"smiles": "CC(C)(Cc1ccc(O)cc1)NC(=O)CC(=O)N=Nc1c(O)[nH]c2cc(Br)ccc12", "Potency": "inconclusive: 15.8 µM [inhibitor, partial curve]"}
{"smiles": "Cc1occc1C(=O)N=Nc1c(O)[nH]c2ccc(Br)cc12", "Potency": "inconclusive: 3.16 µM [inhibitor, partial curve]"}
{"smiles": "CCN(C(=O)Cn1c(C(=O)OC)cc2sccc21)c1cccc(C)c1", "Potency": "inactive"}
